# According to the supplement of paper PMC8728848:
# This is one part of the list.
# B1: Gal 8 (Mus musculus), Q9JL15 (protein)
# chain: MGGSHHHHHHGMASMLSLNNLQNIIYNPIIPYVGTITEQLKPGSLIVIRGHVPKDSERFQVDFQLGNSLKPRADVAFHFNPRFKRSSCIVCNTLTQEKWGWEEITYDMPFRKEKSFEIVFMVLKNKFQVAVNGRHVLLYAHRISPEQIDTVGIYGKVNIHSIGFRFSSASALPHTLGDLQSMETSALGLTQINRENIQKPGKLQLSLPFEARLNASMGPGRTVVIKGEVNTNARSFNVDLVAGKTRDIALHLNPRLNVKAFVRNSFLQDAWGEEERNITCFPFSSGMYFEMIIYCDVREFKVAINGVHSLEYKHRFKDLSSIDTLSVDGDIRLLDVRSW
# Experiments:
# Assay in all cases: glycan array binding signal (z-score within array); higher = stronger binding
# Conditions in all cases: glycan notation: IUPAC condensed, linker removed
# [1] = molecular target: GalNAc(a1-3)GalNAc(b1-3)Gal(a1-4)Gal(b1-4)GlcNAc
# How it was run: (§1)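 From the Consortium for Functional Glycomics database, 3228 arrays were curated, keeping only those whose protein sequence was available. Binding is given as a within-array Z-score averaged across arrays sharing a protein sequence and across linkers. Negative Z-scores can be read as non-binding.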
# [2] = molecular target: GalNAc(b1-3)Gal
# How it was run: as §1
# [3] = molecular target: GalNAc(b1-3)Gal(a1-4)Gal(b1-4)GlcNAc
# How it was run: as §1
# [4] = molecular target: GalNAc(b1-3)Gal(a1-4)Gal(b1-4)GlcNAc(b1-3)Gal(b1-4)Glc
# How it was run: as §1
# [5] = molecular target: GalNAc(b1-3)Gal(a1-6)Gal(b1-4)Glc
# How it was run: as §1
# [6] = molecular target: GalNAc(b1-3)GalNAc
# How it was run: as §1
# [7] = molecular target: GalNAc(b1-3)GlcNAc
# How it was run: as §1
# [8] = molecular target: GalNAc(b1-4)Gal(b1-4)Glc
# How it was run: as §1
# [9] = molecular target: GalNAc(b1-4)GlcNAc
# How it was run: as §1
# [10] = molecular target: GalNAc(b1-4)GlcNAc(b1-2)Man
# How it was run: as §1
# [11] = molecular target: GalNAc(b1-4)GlcNAc(b1-2)Man(a1-3)[GalNAc(b1-4)GlcNAc(b1-2)Man(a1-6)]Man(b1-4)GlcNAc(b1-4)GlcNAc
# How it was run: as §1
# [12] = molecular target: GalNAc(b1-4)GlcNAc(b1-3)GalNAc(b1-4)GlcNAc
# How it was run: as §1
# [13] = molecular target: GalNAc(b1-4)GlcNAc6S
# How it was run: as §1
# [14] = molecular target: GalNAc(b1-6)GalNAc
# How it was run: as §1
# [15] = molecular target: GalNAc3S(b1-4)GlcNAc
# How it was run: as §1
# [16] = molecular target: GalNAc3S(b1-4)GlcNAc3S
# How it was run: as §1
# [17] = molecular target: GalNAc3S(b1-4)[Fuc(a1-3)]GlcNAc
# How it was run: as §1
# [18] = molecular target: GalNAc4S6S(b1-4)GlcNAc
# How it was run: as §1
# [19] = molecular target: GalNAc6S(b1-4)GlcNAc
# How it was run: as §1
# [20] = molecular target: Glc(a1-4)Glc
# How it was run: as §1
# [21] = molecular target: Glc(a1-4)Glc(a1-4)Glc(a1-4)Glc
# How it was run: as §1
# [22] = molecular target: Glc(a1-6)Glc(a1-6)Glc
# How it was run: as §1
# [23] = molecular target: Glc(a1-6)Glc(a1-6)Glc(a1-6)Glc
# How it was run: as §1
# [24] = molecular target: Glc(b1-4)Glc
# How it was run: as §1
# [25] = molecular target: Glc(b1-6)Glc
# How it was run: as §1
# [26] = molecular target: GlcA(b1-3)Gal
# How it was run: as §1
# [27] = molecular target: GlcA(b1-3)GlcNAc
# How it was run: as §1
# [28] = molecular target: GlcA(b1-6)Gal
# How it was run: as §1
# [29] = molecular target: GlcA3S(b1-3)Gal(b1-4)GlcNAc(b1-2)Man
# How it was run: as §1
# [30] = molecular target: GlcA3S(b1-3)Gal(b1-4)GlcNAc(b1-3)Gal(b1-4)Glc
# How it was run: as §1
# [31] = molecular target: GlcNAc(a1-3)Gal(b1-4)GlcNAc
# How it was run: as §1
# [32] = molecular target: GlcNAc(a1-4)Gal(b1-3)GlcNAc
# How it was run: as §1
# [33] = molecular target: GlcNAc(a1-4)Gal(b1-4)GalNAc
# How it was run: as §1
# [34] = molecular target: GlcNAc(a1-4)Gal(b1-4)GlcNAc
# How it was run: as §1
# [35] = molecular target: GlcNAc(a1-4)Gal(b1-4)GlcNAc(b1-3)Gal(b1-4)Glc
# How it was run: as §1
# [36] = molecular target: GlcNAc(a1-4)Gal(b1-4)GlcNAc(b1-3)Gal(b1-4)GlcNAc
# How it was run: as §1
# [37] = molecular target: GlcNAc(a1-4)Gal(b1-4)GlcNAc(b1-3)Gal(b1-4)GlcNAc(b1-3)Gal(b1-4)GlcNAc
# How it was run: as §1
# [38] = molecular target: GlcNAc(a1-4)Gal(b1-4)GlcNAc(b1-3)Gal(b1-4)[Fuc(a1-3)]GlcNAc(b1-3)Gal(b1-4)[Fuc(a1-3)]GlcNAc
# How it was run: as §1
binder,measurement,setting,value
B1,glycan array binding signal (z-score),[1],0.226
same,glycan array binding signal (z-score),[2],0.154
same,glycan array binding signal (z-score),[3],-0.272
same,glycan array binding signal (z-score),[4],0.139
same,glycan array binding signal (z-score),[5],-0.197
same,glycan array binding signal (z-score),[6],-0.54
same,glycan array binding signal (z-score),[7],0.185
same,glycan array binding signal (z-score),[8],-0.515
same,glycan array binding signal (z-score),[9],-0.238
same,glycan array binding signal (z-score),[10],0.201
same,glycan array binding signal (z-score),[11],-0.195
same,glycan array binding signal (z-score),[12],0.148
same,glycan array binding signal (z-score),[13],0.02
same,glycan array binding signal (z-score),[14],-0.491
same,glycan array binding signal (z-score),[15],-0.4
same,glycan array binding signal (z-score),[16],-0.531
same,glycan array binding signal (z-score),[17],-0.526
same,glycan array binding signal (z-score),[18],-0.514
same,glycan array binding signal (z-score),[19],-0.538
same,glycan array binding signal (z-score),[20],-0.53
same,glycan array binding signal (z-score),[21],-0.531
same,glycan array binding signal (z-score),[22],-0.539
same,glycan array binding signal (z-score),[23],-0.529
same,glycan array binding signal (z-score),[24],-0.54
same,glycan array binding signal (z-score),[25],-0.539
same,glycan array binding signal (z-score),[26],-0.537
same,glycan array binding signal (z-score),[27],-0.553
same,glycan array binding signal (z-score),[28],-0.51
same,glycan array binding signal (z-score),[29],-0.544
same,glycan array binding signal (z-score),[30],-0.425
same,glycan array binding signal (z-score),[31],0.05
same,glycan array binding signal (z-score),[32],-0.53
same,glycan array binding signal (z-score),[33],-0.501
same,glycan array binding signal (z-score),[34],-0.526
same,glycan array binding signal (z-score),[35],0.212
same,glycan array binding signal (z-score),[36],0.045
same,glycan array binding signal (z-score),[37],0.958
same,glycan array binding signal (z-score),[38],-0.375
